Reference: the supplement of paper PMC12632987
In all, about 4,500 sequences were measured (“median log2 fold change of GCK-ALFA target abundance (FLAG IP / Myc IP barcode read proportion)”: median about 0.078, lowest 2% from about -0.6 on). Some of the results follow.

B1: GBRAP_160_4708 (protein)
chain: SETAEKLKEYVDEEFEELKEMIEGETAEQRATIARGAFGEIIMELIENEEASDELEDEVDEIGDELVATILANPDLTDEEVKALIDEAREKIKEAIEKHL
B2: GBRAP_160_4251 (protein)
chain: EEELERLREEIREEAEVLLEALEESDKADWPAFARAMAGDIVQLVIDNPNASEETIEEVDRLAEELAAELVAAADASPEERRALLERGVERIVETVEKGL
B3: GBRAP_128_3578 (protein)
chain: SVEEVKAEVRALLAAMKTADEATQKAIADEIATRFIKLSLEEQKAAAETIKELLPELTAEQLEILADAFRKARPKGTPEAANLLADVQVEALNAALEKEE
B4: GBRAP_160_4727 (protein)
chain: SERIEAFVEEFREEFLETIDATENESKEEANAMFEGTAGDILMDAFEEPFLSDEMEDVVAEILDELVAELKANWDASKEEKKAIVDEHMERLLEKLKELE
B5: GBRAP_52_6053 (protein)
chain: MREELRAKVDELVALMRAGDEDGARAMLDEIAATLNEEELKLFAEELAERAAAAAPEDFDAMARLAEMFEDALLAAGVDEAFADEAEALIYAALYEAELR
B6: GBRAP_160_4102 (protein)
chain: MEKIEELIKEIDELVKETKEMIKGESIEQRAIIVEGTGGEVIMLLFESGVVSEEVEDFADEEWDKLVETIRSNPDLTYEEIVKLIDEVAEKIKKKIKEDG
B7: GBRAP_128_3520 (protein)
chain: SVEEAIKEAEEVMEKIKNSSVEEAYKIAKEFLKKLKEWSLEEVEAAVEKMEKLLPKLSAEKLEAVADAIEELRGEFDPEKARLLAGLQVDALNEAEELEE
B8: GBRAP_160_4039 (protein)
chain: SEKYEKLAKFAKEVFEEAKKLIEGQTVEQAAVVFAVAMGQIILEAEELGIDDDELHDLIDKLEDEGVAYLLAHPDLTEEEIKKLIEEAEKKILEAIEKAK
B9: GBRAP_52_5981 (protein)
chain: MEEEMRKLAEEIVALVKAGKLEEARALMERLAAELSEEELEMIAEELARLAKTASPEEIDAIVEAAEMLRDVWLEAGRDEAVADAGLARVAAAAYAALQA
B10: GBRAP_160_4812 (protein)
chain: MEKVEEKLKEAEKDLLDTAEASKDLPVADRAKLLEAEGYTNILDLEEELNLSDETVDKLDKIVDDLVATLLANPDLTDEEVLALVKKAAEEIKEVVLKEA
B11: GBRAP_11_2654 (protein)
chain: KKEALLRAAELAEEAAKAVQELIEKGVDDKELQAKAEELLEKLLELAKKELDEASRHDVEVAYELWKEFKADKANREQLAKELLAALRVLAGNYLLEADE
B12: GBRAP_128_3171 (protein)
chain: SSEEIVKKVEELVNAMLTASPEEQRKLAREIVDIFGEADDETAEKIAEVIIKMAPKFSEEQLEILDDVIRERMPELTPEKQELAAEVMVELGEQILELEE
B13: GBRAP_184_5179 (protein)
chain: MVKEFEIEIENVEEAKKKMEEIKEEVKGKKAELYLIVKAKKFTVEIVEAIMEILKEMKEEGYVTKVTLHLDGEMSEEVIDKAVELAKEAGVNLVLALDEE
B14: GBRAP_160_4781 (protein)
chain: SEKKEKLKKAIEEAAKEIKEAIDTESPEQVLTVVRGEGGDILQEAEELGIDNEEALEGLDKGIKELEAAMKAAADASPEEKKAIVDKAKEKMIETLDKLT
B15: GBRAP_128_3274 (protein)
chain: MNEEIVARARAFVDRLKAADDEEARAIAREFAEWLGSISVEDAEQAVDVIEERLGELSARQLEILADVLEEQRPLFSPEKANLVADLQVEALNEAEEKEE
B16: GBRAP_160_4149 (protein)
chain: SEELKKLIKEIKEITEEAIKLMEGETPEEAKVIAKVALGEIVMLVESNEEVSEETEEKVGEIADEAEEYLDENPDLTVEEIKELLKKAGEEVIKIIEEEL
B17: GBRAP_11_2842 (protein)
chain: SRAALERLAARAEEIAAELEALIASGAPSEAELEALLARVEALLAEVKAHASAASQKIAAIALEEVRQAIADPENRQEYLRNALAAVRVLAGDLLLEIEE
B18: GBRAP_83_6952 (protein)
chain: KEKIVVAANDDNVEKAVKIAADLAKTGKYEVTLEFIGTVEAARKLIKYVEKALKEGVTFDVEVLLEGATEEEAEEIKAELEAVAKKAGKDVKVEVHVIEP
B19: GBRAP_128_3411 (protein)
chain: STEEKVKKAEELLEKMLTADEEEQKKLAEELAELLKESDLETVEKIVEVILKMLPKFTAEQLDILADVLRERLSEFSPEKQELVSEVIVEALNLAEELEE

These binders were tested against GABARAP, O95166 (assay: median log2 fold change of GCK-ALFA target abundance (FLAG IP / Myc IP barcode read proportion) (log2 ratio); each designed protein is fused to an ALFA-tag nanobody in HEK293 cells to bring the named protein to FLAG-tagged glucokinase (GCK); Myc marks an untargeted standard; higher = target protein stabilised (more abundant)). Conditions: target protein: 3xFLAG-MCP-GCK-ALFA reporter; HEK293 landing pad (RPLP).
Chain of GABARAP, O95166 (O95166 whole entry, the tested form may be a part): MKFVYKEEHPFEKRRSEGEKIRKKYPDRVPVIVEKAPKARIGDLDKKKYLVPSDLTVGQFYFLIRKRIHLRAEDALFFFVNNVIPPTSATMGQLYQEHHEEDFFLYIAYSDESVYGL
Method in brief: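 The readout is target abundance, the per-binder median log2 ratio of FLAG to Myc barcode read proportions. It came from HEK293 landing-pad cells carrying a recombined ALFA-nanobody-fused binder library, induced with 2 μg mL^−1 doxycycline and transfected with a plasmid for a FLAG-tagged target and a Myc-tagged standard. After 48 h, lysates were immunoprecipitated with anti-FLAG and anti-Myc, and circular RNA barcodes were reverse transcribed, amplified and sequenced. Each barcode needed a proportion of at least 10^−7 in both replicates and each binder at least 3 barcodes per replicate, a pseudocount of 10^−6 was added, and the replicates were pooled.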
With B1 the “median log2 fold change” value was -0.0929. B2 was tested, and the “median log2 fold change” value was -0.029. For B3, the “median log2 fold change” value was 0.203. For B4, the “median log2 fold change” value was -0.216. In the case of B5, the “median log2 fold change” value is reported as -0.129. With B6 the “median log2 fold change” value was -0.188. With B7 the “median log2 fold change” value was 0.284. In the case of B8, the “median log2 fold change” value is reported as 0.219. For B9, the “median log2 fold change” value was 0.0743. B10 was tested, and the “median log2 fold change” value was -0.0975. For B11, the “median log2 fold change” value was 0.236. In the case of B12, the “median log2 fold change” value is reported as 0.237. In the case of B13, the “median log2 fold change” value is reported as -0.138. In the case of B14, the “median log2 fold change” value is reported as 0.333. B15 was tested, and the “median log2 fold change” value was 0.124. B16 was tested, and the “median log2 fold change” value was -0.271. In the case of B17, the “median log2 fold change” value is reported as 0.147. For B18, the “median log2 fold change” value was 0.211. B19 was tested, and the “median log2 fold change” value was 0.197.
